The values below come from PMC5836133.

The list shows a part of the results. At the low end of the ranking the order means little.

This test deals with T1, GST-NbGlk1(82-244).
T1 sequence: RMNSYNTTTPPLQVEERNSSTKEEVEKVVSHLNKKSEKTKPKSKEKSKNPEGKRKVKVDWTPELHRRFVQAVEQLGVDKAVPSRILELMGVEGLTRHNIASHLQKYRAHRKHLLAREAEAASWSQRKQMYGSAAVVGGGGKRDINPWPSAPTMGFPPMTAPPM
Nature of the test: protein-binding microarray.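 Also: rank-based score ranging −0.5 to +0.5 with E above 0.45 taken as significant binding.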 The note with it: NbGlk1 is a Golden2-like transcription factor of Nicotiana benthamiana; high values mean tight binding; most listed sequences are background and not binding sites; double strand, one strand shown.
Consider CAGCGTCG, for which the binding signal is -0.121 E-score. For ATCGTGGA the value was 0.273 E-score; for ATCGGCTG, 0.0677 E-score. For AAACTCGT the value was 0.00153 E-score.

In turn, AAGCAGCC yielded a binding signal of -0.28 E-score. For AATCACAG the value was 0.311 E-score; for ATGCGAGG, -0.098 E-score; for ACGCAGCC, -0.228 E-score. For AATTTCAC the value was 0.193 E-score.

As to AACGAGGC, the binding signal is -0.117 E-score. For AGACGTGC, the binding signal is -0.198 E-score. For ACGACAAC the value was 0.0296 E-score.

ACGGGATC showed a binding signal of 0.186 E-score. For AGGTCTTG the value was -0.097 E-score. Next, CACATGGG: -0.125 E-score; ATTTCACG: 0.242 E-score. Next, CAAGCGCG: -0.00733 E-score; CAGCCCGA: -0.129 E-score. Sequence ATAGGGAT showed a binding signal of 0.176 E-score. As for AATATCTC, the binding signal is 0.391 E-score. In turn, ACCATTTA showed a binding signal of 0.0498 E-score. Next, CACCACGG: -0.237 E-score; ATTTTTCG: 0.24 E-score. Next, AAATCACA: 0.349 E-score; AAGTGGAT: 0.163 E-score.

AATCCCAA: the binding signal worked out at 0.367 E-score.

AACCGAGA displayed a binding signal of -0.00988 E-score.

Take ACTCTACG: the binding signal is -0.137 E-score. ATACAAAA had a binding signal of 0.251 E-score. For ACGCTAGG the value was -0.0799 E-score. On to ATTGGCTC, for which the binding signal was -0.234 E-score.

Turning to ACCCTCGC, the binding signal is -0.286 E-score. ACCTAATA had a binding signal of 0.0256 E-score. Next, AAAGTTCA: -0.0643 E-score; AAGTTACC: -0.0252 E-score; ATAGCCTC: 0.0553 E-score.

On to AAAAAAAC, for which the binding signal was determined as 0.0722 E-score.

AAGAACTG gave a binding signal of -0.0417 E-score. As for ACAGAATC, the binding signal came to 0.454 E-score. For AATCGACT the value was 0.263 E-score; for ACGTCATG, -0.0674 E-score; for AGGACTTA, -0.138 E-score. Next, AGTTAATA: 0.1 E-score; AGATGCCA: 0.0155 E-score.

CACGTATG registered a binding signal of -0.106 E-score. For ATAGGCTA the value was -0.0147 E-score; for AGTGCCAC, -0.291 E-score; for CAGAATAA, 0.149 E-score. AGCTGACA registered a binding signal of -0.214 E-score. For CACGATGG the value was -0.0296 E-score. Next, ACATTTAA: 0.0561 E-score; AACTGCCG: -0.106 E-score. The sequence AATAGTTG showed a binding signal of 0.0542 E-score. For AGGCACTG the value was -0.303 E-score; for CACTATGG, -0.0907 E-score; for ATGCTCTA, -0.178 E-score. In turn, CAATTGGA yielded a binding signal of 0.0269 E-score. For ACAAAGCC the value was -0.0999 E-score. For ACCCGCGC the value was -0.144 E-score. For ATAGATAT the value was 0.394 E-score; for AATCTACC, 0.404 E-score; for AAATCATG, 0.332 E-score.

For the sequence ACTTACCT, the binding signal was -0.0614 E-score.

Take ATTTGAGA: the binding signal stood at 0.161 E-score. For AAATATGC the value was 0.234 E-score. Next, AGTGGTTG: -0.108 E-score. The sequence AATCCTCA had a binding signal of 0.376 E-score. Next, CAACCCCA: -0.0825 E-score; AAATTCGA: 0.219 E-score; AATATGTA: 0.131 E-score. For AAAGAGGA the value was -0.0804 E-score; for ACACCTGT, -0.117 E-score; for CAGCACCG, -0.178 E-score. For AAATTACT the value was 0.184 E-score; for AACCCGGA, 0.0146 E-score; for ACGACTAA, -0.0352 E-score. In the case of ACTGGGTC, the binding signal is -0.288 E-score.

For the sequence AGCAGCTA, the binding signal was -0.222 E-score. The sequence AGATGGGC displayed a binding signal of -0.175 E-score. For AGCCTCTG the value was -0.199 E-score; for ACGCATAG, -0.117 E-score.

Sequence ACGAGACG displayed a binding signal of -0.0818 E-score. For AGAAGGCC the value was -0.259 E-score. Next, ACAACGAC: -0.0241 E-score. For AATGTCTA the value was 0.0312 E-score; for ATGAGGAG, -0.119 E-score; for ACCTAGAG, -0.218 E-score. Sequence ATGGAGGA gave a binding signal of -0.117 E-score.

AGATCCCT showed a binding signal of 0.298 E-score. For AGTGTGTA the value was 0.0709 E-score. For AATTACGG the value was 0.251 E-score; for ACAGCTGC, -0.27 E-score. In turn, ACCACTAT yielded a binding signal of -0.0442 E-score. In turn, AACAGTAT came in with a binding signal of 0.162 E-score.

ATTGGAAG had a binding signal of 0.000771 E-score.

In turn, AATCGATC registered a binding signal of 0.26 E-score.

With ATGAGACC, the binding signal was -0.272 E-score. For AAAGCAAT the value was 0.27 E-score; for AAGGGAGT, -0.153 E-score; for ACCATTAA, 0.0382 E-score. The sequence AGCTCGCG yielded a binding signal of -0.227 E-score. For ACGCGTGC the value was -0.0475 E-score. Turning to AGTGTTCG, the binding signal was -0.149 E-score. For ACGTGAGG the value was -0.00877 E-score; for AGTACAAC, -0.0232 E-score; for AATACAGC, 0.0384 E-score.

AAACTTGG registered a binding signal of -0.179 E-score. For AGAGACGA the value was -0.113 E-score; for AGAACGGA, 0.0824 E-score. Next, AGTCTAGG: -0.301 E-score; ATGAGATA: 0.209 E-score; AGACGACC: -0.348 E-score.

For ACAGCTAG, the binding signal was -0.108 E-score. In turn, AAACGGTG showed a binding signal of -0.0203 E-score. Next, ATCACGCG: 0.18 E-score. For AACGCTTC the value was -0.036 E-score.

Consider ACCGCGCC, for which the binding signal is -0.0199 E-score. ACTCAAAT yielded a binding signal of 0.153 E-score. Next, AGCTAATC: -0.0827 E-score; ATACCTGG: -0.0932 E-score. In the case of CACACAGG, the binding signal was -0.0882 E-score. For CAGCGACA the value was -0.135 E-score.

Consider ACTGCACC, for which the binding signal was -0.211 E-score.

For the sequence AGATCGTC, the binding signal worked out at 0.336 E-score. Next, AGCGCCAT: -0.238 E-score; ATTTTGGC: 0.186 E-score; AAGAGCTG: -0.178 E-score. Sequence AGAGACAG gave a binding signal of -0.116 E-score. Next, AGATTGTA: 0.332 E-score. Next, AACGCATG: -0.168 E-score; ATAAGGCG: -0.0665 E-score. For ACGAAGTC the value was -0.269 E-score; for AAAAGCGG, -0.0996 E-score. In the case of AAATCCCG, the binding signal came out at 0.435 E-score.

Take ACCGATGA: the binding signal came out at 0.0262 E-score. In turn, AGGGTAAG yielded a binding signal of -0.183 E-score.

The sequence AGAGCCCC returned a binding signal of -0.341 E-score.

As to AGCGAAGC, the binding signal is -0.325 E-score. For ATTCGACA the value was 0.18 E-score; for AGGTACTG, -0.0565 E-score. For AAGATGGG the value was 0.0243 E-score; for ACCTTGTA, -0.0973 E-score. Next, CACGGTCA: -0.146 E-score; ACTCTGAG: -0.105 E-score; ATTTGAAC: 0.183 E-score.

The sequence AAGAATAC showed a binding signal of 0.0588 E-score. For AGCACATG the value was -0.0925 E-score; for AGTGTCCA, -0.124 E-score; for CACCAGGG, -0.193 E-score. For AGGTCCGG the value was -0.231 E-score.

With ACAAGTGA, the binding signal worked out at 0.00336 E-score. ATCTAGGA: the binding signal turned out to be 0.307 E-score. AGGGCTAC came in with a binding signal of -0.175 E-score.

The sequence ATCTCAAA had a binding signal of 0.337 E-score.

In turn, ACTCTGTA came in with a binding signal of -0.0395 E-score. Next, CACTAATG: -0.0191 E-score; ATTATAGA: 0.177 E-score; AGGCTTTA: -0.112 E-score. For AATCTTGG the value was 0.386 E-score. Take AGCGTTGG: the binding signal is -0.139 E-score. Next, CAACTGCA: -0.0599 E-score; ACCACGTG: -0.055 E-score. For CAAACTGG the value was -0.155 E-score; for ATATTAGG, 0.0684 E-score; for AGCGCACC, -0.26 E-score. For ACAAGGGA the value was -0.14 E-score; for AAATTGGG, 0.00305 E-score. As for AGACAATA, the binding signal was 0.0353 E-score. Next, AAAGCTTT: -0.192 E-score; AGTCCCAG: -0.168 E-score; AAGTGCCA: -0.23 E-score. Next, AGCGGCGC: -0.221 E-score.
